Results reported in US20220073613A1, “ACTIVATABLE MASKED ANTI-CTLA4 BINDING PROTEINS” (Xilio Development, Inc., priority 2018, published 2022).
Where “and” joins values, the source holds several entries; their conditions need not be identical. Identical values can stand only once.

How the values were obtained:
human CTLA4-Fc = target: T1, human CTLA4-Fc (Homo sapiens, UniProt P16410); assay: Low density antigen binding ELISA, with or without protease activation
T1 construct: purchased R&D Systems 7268-CT
Experimental: Masked antibodies were buffer exchanged into MMP cleavage buffer prior to incubation with the protease. For activation, protease (Anaspec, ProsecBio, and R&D Systems) was diluted to 100 ng/μL in MMP cleavage buffer (50 mM Tris pH 8.0, 150 mM NaCl, 10 mM CaCl2). APMA (10 mM in DMSO) was added to a final concentration of 1 mM. The enzyme was incubated at 37° C. for 1 hour. Activated protease was added to the masked antibodies at a ratio of 1:1000 antibody:protease (e.g., 1 ug MMP to 1 mg antibody) or an equal amount of buffer was added to negative control samples. Samples were incubated at 37° C. overnight.
Polystyrene 96-well microplates (Fisher #07-200-591) were coated with 1 μg/mL of human CTLA4-Fc (R&D #7268-CT) per well and stored overnight at 4° C. Plates were washed with 0.05% Tween in TBS (TBS-T), blocked with 1% BSA (Sigma Aldrich #B4287-25G), and washed with TBS-T. Serial dilutions of samples containing anti-CTLA4 antibodies were made in assay buffer (PBS+0.05% Tween+1% BSA), added to plate, and shaken orbitally at 100 RPM at room temperature for one hour. After washing with TBS-T, anti-human Kappa light chain [clone: SB81a]-HRP (Abcam #ab79115) diluted to 1:8000 in assay buffer was applied to the wells and shaken at room temperature for one hour. Plates were washed with TBS-T, HRP substrate (Super Signal Pico Chemiluminescent Substrate, Thermo #37069) was applied to plate, and luminescence was recorded using a spectrophotometer (BioTek). Data was analyzed with GraphPad Prism.
Humanized anti-CTLA4 antibodies were used in low density antigen binding ELISA described in Example 7. For assessing activation of masked activatable forms of the humanized anti-CTLA4 antibodies, recombinant proteases were used as outlined in Example 6.
Serial dilutions of the antibodies were made in assay buffer, added to 96-well microplates coated with human CTLA4-Fc, and shaken at room temperature for one hour. Plates were washed with TBS-T, blocked with BSA, and washed again with TBS-T. The antibodies were added to plate and shaken. After washing, anti-human Kappa light chain (conjugated to HRP) in assay buffer was applied to the wells and shaken at room temperature. Plates were washed again before HRP substrate was added. Luminescence was recorded using a spectrophotometer and data analyzed with GraphPad Prism.
FIG. 10A and FIG. 10B show binding studies with masked and unmasked versions of Antibody 2 in the absence (FIG. 10A) or presence (FIG. 10B) of protease. […] Higher concentrations of antibodies are necessary to show binding as evidenced by the shift to the right of the unmasked Antibody 2-6 and the IgG1 isotype (FIG. 10A). Masked antibodies are considered occluded by masking peptide. The occlusion of each masked antibody is shown in Table 7, below, and is calculated by dividing the EC50 for the masked antibody by the EC50 of the unmasked parental antibody, Antibody 2-6.
Unmasked parental Antibody 2-6 was included as a control and was not exposed to protease. Protease digestion was performed according to the protocol provided in Example 6.
A comparison of the in vitro sensitivity of the cleavable peptide sequences to select proteases is shown as radar plots in FIG. 11A-H. Activation of each antibody by each protease on the radar plot is depicted using a radar plot, where activation is depicted as ranging from 0 (no activation) to 1.0 (full activation). […] The occlusion of each masked antibody is shown in Table 12, below, and is calculated by dividing the EC50 for the masked antibody by the EC50 of the unmasked parental antibody, Antibody 2-6. Binding was conducted according to the protocol provided in Example 7 and Example 8 and proteolytic treatment of the antibodies was conducted to according to the protocol provided in Example 6 and Example 8. A solution of masked anti-CTLA4 antibody (1000 nM) was made in appropriate cleavage buffer. Two antibody samples were aliquoted into two 0.5 mL Eppendorf tubes. […]

[1] = system: human conditioned media from human tumors (colon tumors, lung tumors); assay: Ex vivo cleavage in conditioned media from human tumors, ELISA, SDS-PAGE and MS; settings: for percentage (%) of cleavage / molecules cleaved, ELISA / percentage (%) of cleavage based on MS data: colon2 4sept colon tumor sample
[2] = In vivo cleavage detection in tumor, liver, kidney, spleen and plasma (western blot) and CTLA4 binding of recovered antibody; parameters: species or system B-hCTLA-4 transgenic mice; settings: for binding to CTLA4 of antibody isolated from plasma, kidney, liver, or spleen: MB49-bearing B-hCTLA4 transgenic mice, CTLA4-coated MSD plate; for cleavage products in liver tissue / cleavage products in tumors and in liver tissue: single 10 mg/kg i.p., day 4; for cleavage products in tumors and in liver tissue: MCA205 fibrosarcoma; for percentage (%) of product cleaved: SDS-PAGE densometric intensity, three lanes
Experimental: B-hCTLA-4 transgenic female mice were purchased from Biocytogen and were 8-10 weeks old at the start of study. MC38 colorectal tumor cells (5×10^5 cells per mouse), MB49 bladder cancer cells (1×10^6 cells per mouse) or MCA205 fibrosarcoma cells (1×10^6 cells per mouse) were subcutaneously into the right flank of each mouse. Upon reaching ˜250-500 mm^3 sized tumors (day 0), the mice received a single 10 mg/kg intraperitoneal dose of indicated antibodies. Tumor, liver, kidney, spleen and plasma harvested on day 4 for analysis of cleavage by western blot.
For plasma samples, a direct western blot approach is utilized by separating equal volumes of denatured plasma (1-2 μL input) on a gradient criterion precast gel (BioRad). Separated proteins were then transferred into a nitrocellulose membrane using Turbo Transblot system (BioRad). Membranes were than developed using standard methods for anti-human kappa light chain reactivity with an HRP conjugated antibody (ab202549). Cleavage is assessed visually as the cleaved light chain migrates lower than the un-cleaved light chain with a mass difference of 2 kD.
Protein lysates from tumor, liver, spleen and kidney were generated using Tissue Lyser II (Qiagen) bead homogenizer in RIPA buffer (Pierce, 87788) supplemented with protease and phosphatase inhibitors (Thermo Fisher, 78442). Protein concentrations were determined by BCA assay and 3 mgs of tissue lysate was subjected to immunoprecipitation with biotin conjugated anti-human kappa light chain antibody (LSBio, LS-C351451-500) and streptavidin magnetic beads (Pierce, 88816). Proteins were eluted in 50 μL 10 mM Glycine (pH 2) and neutralized with 1M Tris (pH 8) prior to western blot detection of human kappa light chain as described above.
Studies were also carried out where IgG levels of each antibody administered to MB49-bearing mice was quantified by an ELISA assay and then each sample was assayed in a 3-fold dilution series starting at 1 μg/mL for spleen or 0.04 μg/mL for kidney and liver tissue, on a CTLA4-coated MSD plate to assess CTLA4 binding. These studies included a non-masked parental antibody (Antibody 2-6), masked and cleavable antibodies (e.g., Antibody 2-14 and Antibody 2-16), and a masked but non-cleavable antibody (Antibody 2-10). FIG. 24D is an SDS-PAGE analysis showing the percentage (%) of product cleaved for Antibody 2-14. […] FIG. 24F depicts a heat map of the in vitro cleavage of cleavable peptide substrates by a panel of exemplary proteases.

[3] = cultured in colon tumor conditioned media (colon2 4 sept)
[4] = colon tumor conditioned media, MS

| Activation (human CTLA4-Fc; Table 12, Protease +) | Occlusion (human CTLA4-Fc; Table 12, Protease +) | Occlusion (human CTLA4-Fc; Table 12, Protease −) | Molecule | percentage (%) of cleavage / molecules cleaved, ELISA [1] | percentage (%) of cleavage based on MS data [1] | abundance of intact antibody, mass spectrometry ([1]; cultured in RPMI as a control) | abundance of intact antibody, mass spectrometry [1, 3] | binding to CTLA4 of antibody isolated from plasma, kidney, liver, or spleen [2] | cleavage products in liver tissue ([2]; MB49 bladder cancer) | cleavage products in liver tissue ([2]; MC38 colorectal cancer) | cleavage products in tumors and in liver tissue [2] | percentage (%) of cleavage, ELISA ([1]; colon2 8aug colon tumor sample) | percentage (%) of cleavage, ELISA ([1]; colon 28aug colon tumor sample) | percentage (%) of cleavage, ELISA ([1]; lung tumor sample) | other results |
| --- | --- | --- | --- | --- | --- | --- | --- | --- | --- | --- | --- | --- | --- | --- | --- |
| 0.29 | 44 | 62 | Antibody 2-15: masked Antibody 2-6: mask CPGKGLPSC, non-cleavable peptide GSGGSG; SEQ ID NO: 423 and 421; negative control (protein) light: ACPGKGLPSCGGGSSGGSGGSGGSGSGGEIVLTQSPDFQSVTPKEKVTITCSANSALSYMYWYQQKPDQSPKLWVHGTSNLASGVPSRFSGSGSGTDFTLTINSLEAEDAATYYCHHWSNTQWTFGGGTKVEIKRTVAAPSVFIFPPSDEQLKSGTASVVCLLNNFYPREAKVQWKVDNALQSGNSQESVTEQDSKDSTYSLSSTLTLSKADYEKHKVYACEVTHQGLSSPVTKSFNRGEC heavy: QVQLVQSGAEVKKPGSSVKVSCKASGYTFTNYFMNWVRQAPGQGLEWMGRVDPEQGRADYAEKFKKRVTITADKSTSTAYMELSSLRSEDTAVYYCARRAMDNYGFAYWGQGTLVTVSS[human IgG1 constant region with changes left out here] | 0% | 1.2% | 98.8% | 98.8% |  |  |  |  |  |  |  | binding upon addition of various exemplary proteases (radar plot) (human CTLA4-Fc; Adam17, MMP1, MMP2, MMP7, MMP9, MMP10, MMP14, NapsinA): unaffected in its binding |
| 1.0 | 1.1 | 101 | Antibody 2-14: masked Antibody 2-6: mask CPGKGLPSC, cleavable peptide VPLSLY; SEQ ID NO: 358 and 421 (protein) light: ACPGKGLPSCGGGSSGGSGVPLSLYSGGEIVLTQSPDFQSVTPKEKVTITCSANSALSYMYWYQQKPDQSPKLWVHGTSNLASGVPSRFSGSGSGTDFTLTINSLEAEDAATYYCHHWSNTQWTFGGGTKVEIKRTVAAPSVFIFPPSDEQLKSGTASVVCLLNNFYPREAKVQWKVDNALQSGNSQESVTEQDSKDSTYSLSSTLTLSKADYEKHKVYACEVTHQGLSSPVTKSFNRGEC heavy: QVQLVQSGAEVKKPGSSVKVSCKASGYTFTNYFMNWVRQAPGQGLEWMGRVDPEQGRADYAEKFKKRVTITADKSTSTAYMELSSLRSEDTAVYYCARRAMDNYGFAYWGQGTLVTVSS[human IgG1 constant region with changes left out here] | 100% | 95.2% | 99.6% | 4.8% | binding comparable to Antibody 2-6 in liver and spleen and greater binding than Antibody 2-10 in plasma, kidney, liver, and spleen | strongly detected | strongly detected | strongly detected | 100% | 75% | 2.7% | percentage (%) of product cleaved ([2]; kidney): 64% and 60% and 54%; percentage (%) of product cleaved ([2]; liver): 75% and 59% and 77%; percentage (%) of product cleaved ([2]; plasma): 28% and 39% and 35%; percentage (%) of product cleaved ([2]; spleen): 69% and 73% and 72%; abundance of the L*SLY cleavage product [1, 4]: 69%; abundance of the L*YSGG cleavage product [1, 4]: 2.7%; abundance of the S*GG cleavage product [1, 4]: 6.3%; abundance of the S*LY cleavage product [1, 4]: 5.9%; abundance of the Y*SGG cleavage product [1, 4]: 11.3% |
|  |  |  | Antibody 2-16: masked Antibody 2-6: mask CPFPALELC, cleavable peptide DSGGFMLT; SEQ ID NO: 422 and 421 (protein) light: ACPFPALELCSSGGSGPDSGGFMLTSGGEIVLTQSPDFQSVTPKEKVTITCSANSALSYMYWYQQKPDQSPKLWVHGTSNLASGVPSRFSGSGSGTDFTLTINSLEAEDAATYYCHHWSNTQWTFGGGTKVEIKRTVAAPSVFIFPPSDEQLKSGTASVVCLLNNFYPREAKVQWKVDNALQSGNSQESVTEQDSKDSTYSLSSTLTLSKADYEKHKVYACEVTHQGLSSPVTKSFNRGEC heavy: QVQLVQSGAEVKKPGSSVKVSCKASGYTFTNYFMNWVRQAPGQGLEWMGRVDPEQGRADYAEKFKKRVTITADKSTSTAYMELSSLRSEDTAVYYCARRAMDNYGFAYWGQGTLVTVSS[human IgG1 constant region with changes left out here] | 100% | 99.8% | 99.8% | 0.2% | stronger binding compared to Antibody 2-10 in kidney, liver, and spleen | not | not | not | 98% | 45% | 21% | abundance of the T*SGG cleavage product [1, 4]: 96.8% |
